The full ranking holds about 110,000 compounds; the median of “z-score” is about -0.1, and the highest 2% start at about 2. Some of the results follow.
Biological target: Metabotropic glutamate receptor 8 (Rattus norvegicus) (UniProt P70579)
Assay: rat mGluR8 modulators via GIRK flux, primary screen, cell-based, thallium flux, HTS (AID 488969)
Conditions: HEK293 rat mGluR8, GIRK (G protein-gated inwardly rectifying potassium channel) thallium flux, FluoZin2; at 10 µM; stronger effect = higher value; submaximal glutamate (EC20) added with thallium

Sequence of UniProt P70579 (P70579 whole entry, looked up): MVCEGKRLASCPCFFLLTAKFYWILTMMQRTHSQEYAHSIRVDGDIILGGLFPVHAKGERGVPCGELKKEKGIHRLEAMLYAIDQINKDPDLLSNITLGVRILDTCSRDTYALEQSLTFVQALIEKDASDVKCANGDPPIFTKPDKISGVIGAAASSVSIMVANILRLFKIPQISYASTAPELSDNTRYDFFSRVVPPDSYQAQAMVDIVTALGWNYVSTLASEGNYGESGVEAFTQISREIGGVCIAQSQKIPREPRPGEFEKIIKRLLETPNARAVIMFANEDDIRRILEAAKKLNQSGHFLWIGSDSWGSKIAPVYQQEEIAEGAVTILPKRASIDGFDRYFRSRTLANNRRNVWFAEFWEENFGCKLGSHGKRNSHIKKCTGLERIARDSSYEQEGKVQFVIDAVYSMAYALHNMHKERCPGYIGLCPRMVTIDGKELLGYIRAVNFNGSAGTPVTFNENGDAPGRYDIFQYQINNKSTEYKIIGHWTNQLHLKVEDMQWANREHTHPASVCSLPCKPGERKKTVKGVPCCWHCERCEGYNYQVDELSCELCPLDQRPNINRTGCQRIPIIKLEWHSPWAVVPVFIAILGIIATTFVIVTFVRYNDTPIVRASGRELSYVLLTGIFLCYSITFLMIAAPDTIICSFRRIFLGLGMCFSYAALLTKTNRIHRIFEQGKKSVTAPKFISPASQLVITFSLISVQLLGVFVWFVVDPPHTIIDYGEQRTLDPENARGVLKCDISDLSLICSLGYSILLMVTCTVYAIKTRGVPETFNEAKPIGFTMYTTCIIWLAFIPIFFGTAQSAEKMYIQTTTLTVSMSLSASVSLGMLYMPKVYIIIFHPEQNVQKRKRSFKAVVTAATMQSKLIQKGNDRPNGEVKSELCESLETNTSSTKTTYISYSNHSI

| SMILES | z-score |
| --- | --- |
| Cc1cccc(C)c1NC(=O)CSc1nnc(CCCCCNC(=O)OC(C)(C)C)o1 | 0.47 |
| O=C(NCc1ccccn1)C1CCN(S(=O)(=O)N2CCCCC2)CC1 | 0.621 |
| C/C(=C\C(=O)c1ccccc1)NCc1ccc(F)cc1 | -0.549 |
| C(=N\Nc1nc(Nc2ccccc2)nc(N2CCOCC2)n1)/c1c[nH]c2ccccc12 | -0.368 |
| CCOC(=O)c1c(NC(=O)C(C)N2CCN(S(=O)(=O)c3cccs3)CC2)sc2c1CCC(C)C2 (centres undefined) | 0.49 |
| CCCCSc1nnc(-c2ccc(NC(C)=O)cc2)n1C | -0.138 |
| CC(=O)Nc1ccccc1OC(C)C(=O)NC(C)c1ccc(F)cc1 (centres undefined) | -0.113 |
| Oc1ccc(/C=N/Nc2cc(N3CCOCC3)nc(N3CCOCC3)n2)cc1 | -0.137 |
| CCCCOc1ccc(-c2ncc(C(=O)OCC)c(N)n2)cc1 | 0.409 |
| COc1ccc(OCCSc2nnc(CCNC(=O)c3ccc(Cl)c(Cl)c3)n2C)cc1 | -0.372 |
| O=C(Nc1nnc(C2CC2)s1)c1cccc(S(=O)(=O)N2CC(c3ccccc3)CC2=O)c1 (centres undefined) | -0.463 |
| CC1=C(C(=O)OC(C)(C)C)C(c2ccco2)C(C#N)=C(N)O1 (centres undefined) | -0.4 |
| Cc1c(N2C(=O)C(C)SC23C(=O)Nc2ccccc23)c(=O)n(-c2ccccc2)n1C (centres undefined) | -0.12 |
| COc1ccccc1-c1noc(-c2ccncc2)n1 | 0.306 |
| Cc1ccc(N(CC(=O)O)S(C)(=O)=O)cc1Cl | 0.0594 |
| COc1cc(/C=N/NC(=O)c2cc(-c3cccn3C)n[nH]2)cc(OC)c1OC | -0.482 |
| CNC(=O)c1cc2ccccc2o1 | -1.01 |
| O=C(N=Nc1c(O)[nH]c2ccccc12)c1ccccc1NS(=O)(=O)c1cccs1 | 0.524 |
| CCCCCCC(=O)N/N=C/c1ccc(Br)cc1 | -0.143 |
| CC1=C(C(=O)Nc2ccccc2C)C2(CCCC2)C(C(N)=O)C(=O)N1 (centres undefined) | -0.14 |
| CCOc1ccccc1NC(=O)C1CC2CCCC(C1)C2=O (centres undefined) | -0.178 |
| O=C(c1ccc([N+](=O)[O-])cc1)n1nc(-c2ccccc2)nc1NCc1ccccc1 | -0.233 |

| SMILES | z-score |
| --- | --- |
| Cc1csc(NC(=O)CSc2nnc(-c3ccncc3)o2)n1 | -0.104 |
| CN(c1ccc(C(=O)N2CCCCC2)cc1)S(C)(=O)=O | 0.156 |
| O=C(/C=N/O)Nc1cccnc1 | 1 |
| CCOc1cc(C2C(C(=O)OC)=C(C)N=C3SC(C)C(=O)N32)ccc1OC(C)=O (centres undefined) | -0.586 |
| O=C1CC2(CCCCC2)Oc2ccc(OCC(=O)N3CCOCC3)cc21 | -0.0335 |
| Cc1ccc(C)c(OCCn2c(=O)c3c(ncn3C3CCCC3)n(Cc3ccccc3)c2=O)c1 | -0.0704 |
| Cn1c(CN2CCCCC2)nc2cc(NC(=O)c3cccs3)ccc21 | -0.23 |
| CCOc1ccc(C(c2c(NC(=O)c3ccccc3)sc(C)c2C)N2CCN(C)CC2)cc1 (centres undefined) | -0.251 |
| COC(=O)CNC(=O)CN1C(=O)N(c2ccccc2)C(N(O)C(=O)Nc2ccccc2)C1(C)C (centres undefined) | -0.083 |
| CCOc1cccc(Nc2cc3n(c(=O)n2)CCc2cc(OC)c(OC)cc2-3)c1 | -0.11 |
| CCOc1ccc2nc(NC(=O)CSc3nc4ccccc4c(=O)n3Cc3ccco3)sc2c1 | 0.2 |
| O=S(=O)(Cc1ccc(Cl)cc1)NCC1CCCO1 (centres undefined) | 0.728 |
| CCCOC(=O)COC(=O)c1ccccc1NC(=O)c1ccccc1 | -0.232 |
| CC(=O)Oc1ccccc1C1OCCN1C(C)=O (centres undefined) | 1.1 |
| Cc1ccc2cc(CCNC(=O)c3ccc4c(c3)OCO4)c(=O)[nH]c2c1 | -1.21 |
| CCCCCCCC(=O)N/N=C/c1ccc([N+](=O)[O-])o1 | -0.435 |
| CC1(C)OC(=O)N(c2cccnc2)C1(C)O (centres undefined) | -0.26 |
| CCCCCC(=O)Nc1nc(C)c(-c2csc(Nc3ccc(Cl)cc3)n2)s1 | 0.234 |
| Clc1ccc(SCCCCn2cncn2)cc1 | 0.0273 |
| Nc1ccc2c(c1)C(=O)N(CCCC(=O)O)C2=O | 0.27 |
| CCOc1cc(C(=O)NCCOC)ccc1OC | 0.21 |
| Cc1ccc(O)c(C(=O)c2cnc3c(c2)CN(C)C(=O)N3)c1 | -0.261 |

| SMILES | z-score |
| --- | --- |
| O=C(CCN1C(=O)c2ccccc2C1=O)NC(=S)Nc1ccccc1 | -0.0912 |
| CC(NC(=O)Nc1ccccc1)C(c1cccs1)N1CCOCC1 (centres undefined) | -0.0822 |
| FC(F)(F)c1cc(-c2ccco2)nc(N2CCN(Cc3ccccc3)CC2)n1 | -0.284 |
| COc1cc(C(C(=O)NC2CCCCC2)N(C(=O)Cc2c[nH]c3ccccc23)c2ccc(C)cc2)cc(OC)c1OC (centres undefined) | -1.29 |
| Cc1ccccc1NC(=O)CSc1ccsc1[N+](=O)[O-] | -0.219 |
| CC(=NC1CC1)c1c(-c2ccccc2)[nH]n(-c2nc3ccccc3s2)c1=O | -0.25 |
| CCC1CCc2c(sc(NC(C)=O)c2C#N)C1 (centres undefined) | -0.146 |
| COc1ccc(-n2c(SCC(=O)Nc3nccs3)nnc2-c2ccoc2C)cc1 | -0.401 |
| O=C(C1CCN(S(=O)(=O)Cc2ccccc2)CC1)N1CCCc2ccccc21 | -0.24 |
| CS(=O)(=O)N(CC(=O)NCC1CCCO1)c1ccc(Cl)c(Cl)c1 (centres undefined) | -0.312 |
| O=C(NC(=S)Nc1ccc(NC(=O)c2cccs2)cc1)c1ccc([N+](=O)[O-])cc1 | -0.519 |
| O=C(Cc1ccc([N+](=O)[O-])cc1)NCc1ccccc1Cl | -0.208 |
| Cc1ccc(Cn2cnc3sc4c(c3c2=O)CCC4)c(C)c1 | -0.17 |
| O=C(OCCN(CCOC(=O)c1ccncc1)S(=O)(=O)c1cccs1)c1ccncc1 | -0.23 |
| Cc1c(NC(=O)c2cc(-n3cnnc3)ccc2Cl)cccc1-c1nc2ccccc2s1 | -0.154 |
| CCOc1ccc(NC(=O)c2cccnc2C(=O)O)cc1 | -0.313 |
| Cc1nn(-c2nc3ccccc3[nH]2)c(N)c1-c1ccc(Cl)cc1 | 0.65 |
| O=C1OCC2=C1C(c1ccc3c(c1)OCO3)Sc1ccccc1N2 (centres undefined) | -0.129 |
| COc1ccc(NC(=O)C2CCN(C(=O)c3ccc(OC)cc3)CC2)cc1 | 0.172 |
| Cc1cc(C)nc(SCC(=O)c2ccc(O)cc2O)n1 | 1.34 |
| NC(=O)c1ccccc1NS(=O)(=O)c1ccccc1 | -0.173 |
| CCC(=O)c1ccc(OCC(=O)Nc2nn3cnnc3s2)cc1 | 0.196 |

| SMILES | z-score |
| --- | --- |
| CCOC(=O)c1c(N)n[nH]c1-c1ccccc1 | -0.153 |
| Cc1ccc(-n2c(SCC(=O)Nc3cc(S(=O)(=O)N4CCOCC4)ccc3Cl)nc3ccccc3c2=O)cc1 | -0.483 |
| CCc1cc(C(=O)c2ccc(C)cc2)c(NC(=O)CCl)s1 | -0.0255 |
| O=C(NS(=O)(=O)c1ccccc1)c1ccccc1F | -0.324 |
| Cc1nn(CC(=O)N2N=C(C(F)F)CC2(O)C(F)F)c(C)c1[N+](=O)[O-] (centres undefined) | 0.014 |
| COc1ccc(N2CCN(S(=O)(=O)c3cccs3)CC2)cc1 | 0.182 |
| O/N=C/c1ccc(-c2cc(Cl)ccc2Cl)o1 | -0.00728 |
| O=C(Nc1ccc2c(c1)OCO2)c1ccc(NC2CC2)c([N+](=O)[O-])c1 | -0.343 |
| Cc1cccc(/C=N/n2c(C)cc(C)c(C#N)c2=O)c1 | -0.0821 |
| COCCSc1nnc(NC(=O)Cc2ccccc2OC)s1 | 0.31 |
| CCOc1ccc(C2OC(=O)Cc3cc(OC)c(OC)cc32)cc1 (centres undefined) | 0.137 |
| S=C1NNC2(NN1)C1CC3CC(C1)CC2C3 | 0.608 |
| COc1ccc(NS(=O)(=O)c2ccc(NC(=O)C3CCCO3)cc2)cc1 (centres undefined) | 0.407 |
| CCN1CCN(c2cc(C)c3cc(NC(=O)c4cnccn4)ccc3n2)CC1 | 1.64 |
| COC(=O)COc1ccc(S(=O)(=O)N2CCc3ccccc3C2)cc1 | -0.687 |
| Cc1cc(C)cc(NS(=O)(=O)c2ccc3oc(=O)ccc3c2)c1 | 2.23 |
| Cc1ccc(S(=O)(=O)CCC(=O)Nc2cccc(C)c2)cc1 | -0.12 |
| CCc1ccc(OCCNC(=O)c2ccc(S(=O)(=O)N(C)C)cc2)cc1 | -0.269 |
| O=C(Oc1c(CN2CCOCC2)cc(Cl)c2cccnc12)c1ccc(F)cc1 | -0.719 |
| O=C(NCC1CCCO1)c1ccc2c(c1)C(=O)N(C1CCCCC1)C2=O (centres undefined) | -0.445 |
| Cc1ccc(S(=O)(=O)NC(C(=O)OCC(=O)NC2CCS(=O)(=O)C2)C(C)C)cc1 (centres undefined) | -1.96 |
| COc1ccccc1C(=O)NNC(=O)c1ccc(F)cc1 | 0.0416 |

| SMILES | z-score |
| --- | --- |
| O=C(Nc1ccc2c(c1)OCO2)c1ccc(CN2CCOCC2)cc1 | 0.125 |
| Cc1ccc2cc(C)c3nnc(SCC(=O)N4CCCc5ccccc54)n3c2c1C | -0.646 |
| COc1ccccc1C(c1nnnn1C(C)(C)C)N1CCCc2ccccc21 (centres undefined) | -0.475 |
| CCOc1ccc(C(=O)Nc2cccc(C(=O)O)c2C)cc1Cl | -0.271 |
| Cc1cc(C)cc(N(CC(=O)Nc2c(C)n(C)n(-c3ccccc3)c2=O)S(C)(=O)=O)c1 | -0.0377 |
| CN(C)S(=O)(=O)c1cccc(C(=O)OCC(=O)c2ccc3c(c2)NC(=O)CO3)c1 | -0.177 |
| CCC(=O)OC1=C2C(=Nc3c(c(=O)n(C)c(=O)n3C)C2c2ccccc2)c2ccccc21 (centres undefined) | 1.18 |
| CCOc1ccc(NC(=O)c2ccc3snnc3c2)cc1 | -0.126 |
| CCOc1ccc(NC2=C(OC)C(=O)c3ccccc3C2=O)cc1 | -0.209 |
| CCOC(=O)C1C(=O)NC(c2ccccc2)=NC1c1ccc(C(C)C)cc1 (centres undefined) | 0.171 |
| Cc1ccc(S(=O)(=O)/N=C(\N)Nc2nc(C)c3cc(C)c(C)cc3n2)cc1 | -0.266 |
| Cc1ccc(Cn2nnc3c(=O)[nH]c(C4CCN(S(=O)(=O)c5ccccc5)CC4)nc32)cc1 | 0.177 |
| O=C(CNC(=O)c1cccc(Br)c1)NCCc1nc2ccccc2[nH]1 | 0.436 |
| Cc1ccccc1Oc1cc(-n2ncc(Cl)c(Cl)c2=O)ncn1 | -1.13 |
| Cn1c(=O)n(C)c2cc([N+](=O)[O-])c(N3CCN(C(=O)c4ccc(Cl)cc4)CC3)cc21 | 0.056 |
| Cc1n[nH]c(=O)nc1Nc1ccc(O)cc1 | 0.142 |
| CCCc1cc2c(=O)c(-c3ccccn3)coc2cc1OC | 1.67 |
| Cc1cccc(CCNS(=O)(=O)c2ccc3c(c2)n(C)c(=O)c(=O)n3C)c1 | -0.409 |
| O=C(Cc1ccc(Cl)cc1)Nc1ccc2oc(-c3ccncc3)nc2c1 | 0.0314 |
| CCOC(=O)CN1NC2(CCCCC2)NC1=S | 0.284 |
| COc1ccc(OC)c(C2=NOC(C(=O)Nc3cccnc3)C2)c1 (centres undefined) | -0.238 |

— PubChem BioAssay AID488969 (Vanderbilt High Throughput Screening Facility, 2010)
